In PubChem BioAssay AID1346428 (National Center for Advancing Translational Sciences (NCATS), 2018):
“And” between values parts separate entries of the source, which are not always exact repeats. Equal values may be shown once. The campaign covered roughly 48,000 compounds. About 1,200 (2.5%) were called active. Roughly 2% stayed inconclusive and do not appear here.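 Rule for the calls: active = activation of at least 60% and not above a set upper limit (about 1 call in 100 departs from these limits); inconclusive = activation of 40% to 60%, or above that upper limit; inactive = activation under 40%.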 The list shows a part of the results.

Target: Probable G-protein coupled receptor 32 (Homo sapiens) (UniProt O75388)
Sequence of UniProt O75388 (O75388 whole entry, looked up): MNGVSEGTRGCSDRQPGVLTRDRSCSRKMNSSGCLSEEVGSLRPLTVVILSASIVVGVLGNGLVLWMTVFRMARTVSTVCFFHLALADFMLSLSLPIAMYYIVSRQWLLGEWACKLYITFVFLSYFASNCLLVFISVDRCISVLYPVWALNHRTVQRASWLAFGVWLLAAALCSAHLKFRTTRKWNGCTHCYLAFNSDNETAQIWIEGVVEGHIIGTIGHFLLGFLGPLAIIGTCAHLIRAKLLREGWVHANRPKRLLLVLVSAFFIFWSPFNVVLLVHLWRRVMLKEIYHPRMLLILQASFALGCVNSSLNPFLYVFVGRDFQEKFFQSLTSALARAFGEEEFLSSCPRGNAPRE
Assay: qHTS for Agonists of Human Resolvin D1 Receptor DRV1; note: 0% is about no effect
Conditions: CHO-K1 GPR32 beta-arrestin PathHunter luminescence, 90 min; at 76.9 µM; stronger effect = higher value; zero percent set by DMSO-only wells
Outline: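 GPR32 activation in stably transfected CHO-K1 cells, detected as beta-arrestin recruitment by enzyme-fragment complementation. Compound exposure: 90 min, 37 °C.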

Row | SMILES | activation
1 | CCCCNC(=O)c1ccc2c(c1)N(CC)C(=O)c1ccccc1S2 | inactive: -18.5%
2 | Cc1ccc2c(c1)N(C(=O)N1CCC(C(=O)NCc3ccccc3C)CC1)CC(C)O2 (stereo not drawn) | inactive: 7.27%
3 | CCCCNC(=O)c1c(-c2ccccc2)c(-c2ccccc2)nn(C)c1=O | inactive: -24.9%
4 | CC(=O)N1CCCc2cc(S(=O)(=O)N3CCN(c4ccccc4F)CC3)ccc21 | inactive: -0.0187%
5 | COc1cccc(C2C(C(=O)Nc3ccc(Cl)cc3)=C(C)Nc3nc4ccccc4n32)c1OC (stereo not drawn) | inactive: -2.19%
6 | COc1ccc(N2CCN(C(=O)C3CCCN(C(=O)c4cc5sccc5n4C)C3)CC2)cc1 (stereo not drawn) | inactive: -8.24%
7 | CCOC(=O)c1c(C)n(-c2ccccc2)c2ccc(OC(=O)COc3ccccc3)cc12 | inactive: 9.79%
8 | NC(=NCCCCCCN=C(N)/N=C(\N)Nc1ccc(Cl)cc1)/N=C(\N)Nc1ccc(Cl)cc1 | active: 86.5%
9 | CC(=O)N1c2ccc(S(=O)(=O)NCc3ccccc3Cl)cc2CC1C (stereo not drawn) | inactive: 4.78%
10 | CCCc1nnc(NC(=O)c2cc(=O)c3ccccc3o2)s1 | inactive: 2.45%
11 | CC1=C(C(=O)Nc2cccnc2)C(c2cccc(F)c2)n2nc(SCc3ccccc3F)nc2N1 (stereo not drawn) | inactive: 3.42%
12 | O=C(CSc1nc(=O)[nH]c2c1CCCC2)NCc1ccccc1Cl | inactive: -8.06%
13 | COc1ccc(C)cc1NC(=O)c1cc(S(=O)(=O)N2CCOCC2)cn1C | inactive: -23.6%
14 | CCCCNC(=O)CN1C(=O)c2cccnc2Sc2ccccc21 | inactive: -12.1%
15 | COc1ccc(CNC(=O)CCS(=O)(=O)c2cc(Br)cc3c2N(C(C)=O)C(C)C3)cc1 (stereo not drawn) | inactive: -8.82%
16 | CCOc1ccccc1NC(=O)CCCc1nc(-c2ccccc2Cl)no1 | inactive: -8.58%
17 | COc1cc2[nH]c(=O)n(Cc3ccc(C(=O)N4CCN(c5ccc(Cl)cc5)CC4)cc3)c(=O)c2cc1OC | inactive: 0.537%
18 | O=C(Nc1cccc(Cl)c1Cl)c1ccc2c(c1)N(Cc1cccc(Cl)c1)C(=O)c1ccccc1S2=O (stereo not drawn) | inactive: -9.86%
19 | Cc1ccc(NC(=O)c2sc3ncn(Cc4cccc(F)c4)c(=O)c3c2C)c(Br)c1 | inactive: -0.476%
20 | Cc1ccc(C)c(NC(=O)Cn2nc(C)c3nn(-c4ccc(Cl)cc4)c(C)c3c2=O)c1 | inactive: -2.55%
21 | Cc1ccc(N(Cc2cccs2)C(=O)C(C)Oc2ccc(Cl)c(C)c2)cc1 (stereo not drawn) | inactive: -4.09%

Row | SMILES | activation
22 | CCn1c2ccccc2c2cc(CN3CCN(Cc4cc(OC)c(O)c(OC)c4)CC3)ccc21 | inactive: -29.2%
23 | COc1ccc(N2CCN(c3ccc(-c4nc(-c5ccccc5)no4)cc3[N+](=O)[O-])CC2)cc1 | inactive: -12.7%
24 | CCOc1ccc(CCNC(=O)c2cc3c(=O)n(CC)c4ccccc4c3s2)cc1OCC | inactive: -3.76%
25 | CCc1cccc(NC(=O)CSc2nncn3c2cc2sccc23)c1 | inactive: 9.05%
26 | Cc1c(C)n(Cc2ccccc2)c2ccc(C(=O)N3CCN(c4ccc(F)cc4)CC3)cc12 | inactive: -30.1%
27 | Cc1c(C(=O)O)c(O)cc2c1C(=O)c1c(O)c([C@@H]3O[C@H](CO)[C@@H](O)[C@H](O)[C@H]3O)c(O)c(O)c1C2=O | inactive: -63.8%
28 | CC(C)CCNC(=O)c1ccc2c(c1)NC(=O)C(C(C)C)N2 (stereo not drawn) | inactive: 2.21%
29 | Cc1ccc(Cl)cc1N1CCN(C(=O)CN2C(=O)COc3ccc(S(=O)(=O)N4CCCCCC4)cc32)CC1 | inactive: -14.2%
30 | COc1ccc(S(=O)(=O)NCCSc2nnnn2-c2ccccc2)cc1OC | inactive: 16.8%
31 | Cc1ccccc1Nc1c(-c2cccc(Cl)c2)nc2ncccn12 | inactive: -31%
32 | Cn1cnc(S(=O)(=O)N2CCCC(C(=O)NCc3ccc(Cl)cc3)C2)c1 (stereo not drawn) | inactive: -7.39%
33 | CCN(CC)S(=O)(=O)c1ccc2c(c1)N(CC(=O)N1CCN(c3ccc(OC)cc3)CC1)C(=O)CO2 | inactive: -20.4%
34 | O=C(CSc1nc2ncccc2[nH]1)Nc1cc(F)ccc1F | inactive: -4.29%
35 | O=C(CCn1c(=O)c2cccn2c2cccnc21)NCc1ccccc1Cl | inactive: -8.72%
36 | CCOc1ccc(C(=O)c2cn(CC(=O)Nc3ccc4c(c3)OCO4)c3ccc(OC)cc3c2=O)cc1 | inactive: 1.47%
37 | COc1cccc(N2CCN(C(=O)C3CCCN(S(=O)(=O)c4cccc5nsnc45)C3)CC2)c1 (stereo not drawn) | inactive: 23.1%
38 | Cc1ccc(CNC(=O)CCc2c(C)nn(-c3ccc(N4CCOCC4)nn3)c2C)cc1 | inactive: 0.499%
39 | CCOc1ccc2c(c1)c(=O)c(C(=O)c1ccc(CC)cc1)cn2CC(=O)Nc1ccccc1OC | inactive: 8.08%
40 | COc1ccc(OC)c(NC(=O)Cn2c(=O)c3cccn3c3ccccc32)c1 | inactive: -18.2%
41 | CCn1c(=O)n(-c2ccc3c(c2)OCO3)c2nc(-c3ccc(C(C)C)cc3)nc(C(N)=O)c21 | inactive: -7.47%
42 | O=C(Nc1cccc(Cl)c1)C1CCCN(c2nn3cc(-c4ccc(F)cc4)nc3s2)C1 (stereo not drawn) | inactive: -0.378%

Row | SMILES | activation
43 | CCOC(=O)C1CCN(C(=O)c2nn(-c3ccc(OC)c(Cl)c3)c(=O)c3c2c2ccccc2n3C)CC1 | inactive: -8.17%
44 | Cc1ccc(Cl)cc1NC(=O)CSc1nc2ccccc2c2nc(-c3ccccc3)nn12 | inactive: -16.7%
45 | CCOc1ccc(C(=O)Nc2cc(-c3nc4cc(OC)ccc4o3)ccc2C)cc1[N+](=O)[O-] | inactive: 10.4%
46 | Cc1ccc(S(=O)(=O)c2cn(CC(=O)Nc3cccc(Cl)c3)c3ccccc3c2=O)cc1 | inactive: -4.31%
47 | CC1(C)N=C(SCc2ccc(F)cc2)c2ccccc2N1 | inactive: -2.75%
48 | O=C(Cn1cc(C(=O)C(F)(F)F)c2ccccc21)N1CCCCCC1 | inactive: -12.5%
49 | CC1CCCCN1CCCNC(=O)c1cc(Sc2cccc(Cl)c2)nc2ccccc12 (stereo not drawn) | inactive: -13.7%
50 | CCOc1ccccc1NC1(c2ccccc2)C(=O)c2ccccc2C1=O | inactive: -32.2%
51 | Cc1ccccc1CN1c2ccccc2-c2nc(SCC(=O)c3ccccc3)ncc2S1(=O)=O | inactive: 1%
52 | O=C(COc1ccc2ccccc2c1)NC1CC(=O)N(c2ccc(F)cc2)C1 (stereo not drawn) | inactive: 17.9%
53 | Cc1nc2sccn2c(=O)c1CCN1CCC(=C(c2ccccc2)c2ccc(F)cc2)CC1 | inactive: -12.9%
54 | Cc1ccccc1OCc1nc2c3cnn(-c4cccc(F)c4)c3ncn2n1 | inactive: -11%
55 | Cc1c(CNC2CCCCC2)c(C(=O)O)c(C)n1Cc1ccccc1F | inactive: 19.1%
56 | CCNC(=O)c1ccc2c(c1)nc1n2CCCCC1 | inactive: -13.3%
57 | COC(=O)c1c(NC(=O)/C(C#N)=C/c2ccc(OC)cc2)sc2c1CCC2 | inactive: -20.3%
58 | O=C1CN(/N=C/c2ccc([N+](=O)[O-])o2)C(=O)N1 | inactive: -1.38%
59 | O=C(NC1CC(=O)N(c2ccccc2)C1)C(c1ccccc1)c1ccccc1 (stereo not drawn) | inactive: -8.08%
60 | O=C(CSc1nc2nccnc2c(=O)n1CCc1c[nH]c2ccccc12)Nc1ccccc1 | inactive: 25%
61 | COc1ccc(S(=O)(=O)N2CCC(N3CCN(Cc4ccc(F)cc4)C(=O)C3=O)CC2)cc1 | inactive: -10.3%
62 | Cc1c(CCNC(=O)c2ccc(Br)o2)sc2nc(-c3ccc(Cl)cc3)nn12 | inactive: 1.65%
63 | Cc1ccc(C(=O)N2CCCCC2)cc1NC(=O)c1nsc2ccccc12 | inactive: -13%

Row | SMILES | activation
64 | O=C(Nc1ccccc1C(F)(F)F)C1CCN(S(=O)(=O)Cc2ccccc2)CC1 | inactive: -8.05%
65 | CCc1ccc(C(=O)c2cn(CC(=O)Nc3cc(OC)ccc3OC)c3nc(C)ccc3c2=O)cc1 | inactive: 34.7%
66 | NC(N)=NC(=O)c1nc(Cl)c(N2CCCCCC2)nc1N | inactive: 37.7%
67 | Cc1oc2cc3oc(=O)c(CC(=O)NCc4ccccc4)c(C)c3cc2c1C | inactive: -13.8%
68 | CC1=C(CC(=O)O)c2cc(F)ccc2/C1=C\c1ccc(S(C)(=O)=O)cc1 | inactive: -24.6% and inactive: -48.9%
69 | COc1cccc(NC(=O)c2oc3ccccc3c2NC(=O)c2ccc(F)c(F)c2)c1 | inactive: -3.28%
70 | Cc1ccc(C)c(NC(=O)c2ccc3c(c2)CCCN3S(C)(=O)=O)c1 | inactive: 3.59%
71 | Cc1ccc(-n2c(=O)c3sc4ccccc4c3n(C)c2=O)cc1F | inactive: -1.96%
72 | Cc1ccc(-c2onc(C)c2C)cc1S(=O)(=O)N1CCOc2ccc(Cl)cc21 | inactive: 7.98%
73 | COc1ccc(-n2c(SCC(N)=O)nc3c(oc4ccccc43)c2=O)cc1 | inactive: -17.7%
74 | CC(=O)N1CCc2c(sc3c2c(=O)n(Cc2ccccc2)c(=O)n3Cc2ccccc2F)C1 | inactive: -21.8%
75 | O=C(Cc1cccs1)Nc1c(C(=O)Nc2ccc(F)cc2)oc2ccccc12 | inactive: -6.53%
76 | CC(C)CN1CCc2nc(Nc3ccc(F)cc3F)ncc2C1 | inactive: -30.2%
77 | Cc1ccccc1OCC(O)CO (stereo not drawn) | inactive: -2.37%
78 | CCC(Sc1nc(-c2ccc(F)cc2)nc2c1Cc1c(CO)cnc(C)c1O2)C(=O)Nc1ccc(F)cc1 (stereo not drawn) | inactive: 4.97%
79 | COc1c(Cl)cc(C(=O)N(Cc2ccccc2F)C2CCS(=O)(=O)C2)cc1Cl (stereo not drawn) | inactive: -10.8%
80 | COc1ccc(CCC(=O)NCc2ccc3c(c2)CCN3C(=O)c2ccccc2)cc1 | inactive: -28.4%
81 | CCS(=O)(=O)N1CCc2cc(C(=O)N3CCN(c4ccccc4OC)CC3)ccc21 | inactive: 19.9%
82 | CC(C)(C)OC(=O)N1CCc2nc(N3CCN(c4ncccn4)CC3)ncc2C1 | active: 62.3%
83 | Cn1c(=O)c2c(nc(SCC(=O)Nc3ccc(F)cc3)n2Cc2ccccc2F)n(C)c1=O | inactive: 11.7%
